Experimental data taken from PubChem BioAssay AID361 (National Center for Advancing Translational Sciences (NCATS), 2006).
The whole screen tested about 51,000 compounds, of which about 600 (1.2%) were called active. Inconclusive means that the source gave no clear call. Such entries were picked first, then a sample of the others. Rule as the data show it: active = potency below about 11 µM; inconclusive = mostly about 12 µM to 25 µM; inactive = weaker than that;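 the screen sought inhibitors and activators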. Potencies of inconclusive entries are left out as doubtful fits.

Tested on: pyruvate kinase (Bacillus stearothermophilus)
Experiment: Pyruvate Kinase
Settings: purified pyruvate kinase, luminescence ATP production; ribose 5-phosphate activator present at AC10
Method in brief: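 Partially purified B. stearothermophilus pyruvate kinase (10 nM final) with 2 mM PEP, 0.1 mM ADP and 0.7 nM ribose 5 phosphate in 50 mM imidazole pH 7.2, KCl, MgCl2; 2 h at room temperature, ATP formed read by luciferase luminescence.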
Potency is read from the fitted curve at half-maximal effect.

SMILES | Potency
Cc1csc2nc(CSc3nc4ccccc4o3)c(Br)n12 | inconclusive [increasing]
COc1ccc(-c2nc3n(c2Br)CCC3)cc1 | inconclusive [decreasing]
Cc1ccc(C)c2[nH]c(=O)c(CN(CCN3CCCC3)C(=O)Nc3ccc(F)cc3)cc12 | inconclusive [increasing]
CCOC(=O)c1cnc(Nc2nc3ccccc3o2)nc1CSc1ncccn1 | inactive: > 57 µM
Nc1ccc2oc(-c3ccccc3Cl)nc2c1 | active: 3 µM
COc1ccc2nc3oc(C(=O)N4CCCCC4)cc3cc2c1 | inconclusive [decreasing]
Cn1cccc1Cc1nnc(SCC(=O)NCC2CCCO2)n1CCc1ccccc1 (stereo not drawn) | inactive: > 57 µM
O=C(O)CSC1CC(=O)N(c2ccc(Cl)c(Cl)c2)C1=O (stereo not drawn) | inconclusive [increasing]
O=C(Nc1ccc2c(c1)OCO2)c1ccc(Br)s1 | inconclusive [decreasing]
Cn1c(N2CCC(C(N)=O)CC2)nc2c1c(=O)n(Cc1cccc(Br)c1)c(=O)n2C | inconclusive [increasing]
Nc1ccc2oc3ncccc3c(=O)c2c1 | inconclusive [decreasing]
Cc1onc(-c2ccccc2)c1C(=O)Nc1ccccc1N1CCOCC1 | inactive: > 57 µM
Cc1nc(NC(=O)COC(=O)C(NC(=O)c2ccco2)C(C)C)c(Cl)cc1Cl (stereo not drawn) | inconclusive [increasing]
CN(Cc1cc2ccccc2[nH]c1=O)C(=O)C1CCCCC1 | inactive: > 57 µM
Cn1cccc1C(C(=O)NC1CCCCC1)N(C(=O)Cc1cccs1)c1ccc2c(c1)OCCO2 (stereo not drawn) | inactive: > 57 µM
Cc1ccc(C(C)C)c(OCCNc2nc3c(c(=O)n(C)c(=O)n3C)n2C)c1 | inactive: > 11.4 µM
Cn1cccc1C(=O)OCC(=O)Nc1cc(C(C)(C)C)nn1-c1ccccc1 | inactive: > 57 µM
CN1CCN(c2nc(-c3ccccc3)nc3c2oc2ccccc23)CC1 | inconclusive [decreasing]
CCOC(=O)Cc1csc(NC(=O)c2ccc(C)o2)n1 | inactive: > 57 µM
CCOC(=O)c1cc(C)n(-c2c(C)n(C)n(-c3ccccc3)c2=O)c1C | inactive: > 57 µM
CCOC(=O)C1CCN(CC(=O)N2C(C)CCCC2C)CC1 (stereo not drawn) | inactive: > 57 µM
CCOc1ccc(NS(=O)(=O)c2ccc3[nH]cc(C(=O)N(CC)CC)c(=O)c3c2)cc1 | inconclusive [increasing]
Cc1cc(C(=O)Nc2sc3c(c2C#N)CCCC3)no1 | inconclusive [decreasing]
